# Data from PubChem BioAssay (NCI).
# A structure can be active in one record and inactive in another.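 Growth was measured after 48 h exposure to one concentration of compound in 96-well plates. Values under 10 count as active.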 For part of its entries the source gives two or more results. Only these are listed. The source may hold further records. The screen tested this drug many times, at its own concentration, as given; each value is one run. Brackets with × give the number of equal values in this list.
# Legend:
# [1] = tested on: 786-0 renal; assay: NCI-60 one-dose screen, 48 h (100 = growth as untreated, 0 = no growth, -100 = all killed)
# [2] = tested on: K-562 leukemia; assay: as above; conditions: 0.25 µM
structure (smiles),measurement,setting,value
COc1cccc2c1C(=O)c1c(O)c3c(c(O)c1C2=O)C[C@@](O)(C(=O)CO)C[C@@H]3OC1CC(N)C(O)C(C)O1 (stereo not given in full),growth,"[1]; 0.25 µM, runs of 2021","inactive: 16.7, 31.4, 21, 25.8, 23.5 (2×), 23.9, 18.9, 19.3, 20.2, 18.7, 24.7, 15.6, 17 (2×), 15.2, 20.5, 16.6, 18.6, 14.4 (2×), 13.2, 15 (2×), 16.8, 11.7 (2×), 11.3 (2×), 12.8, 16, 17.2, 17.5, 18.4, 10.7, 17.6 (2×), 21.6, 15.3, 28.3, 31.5, 11.6, 13.6, 14, 12, 12.5, 17.3, 17.7, 14.5% and active: 8.65, 5.26, 9.76, 9.23, 6.5, 7.88, 9.84%"
same,growth,"[1]; 0.25 µM, runs of 2022","active: 8.78, 3.29, 0.469, 5.52, 4, 6.36, 8.38, 5.71, 9.22, 7.35% and inactive: 16.7, 13.4 (2×), 18.3, 13.9, 19.5, 26.7, 15.3, 11, 44.6, 59.1, 16.6, 51.5, 51.8, 82.8, 11.1, 11.6, 13.1%"
same,growth,"[1]; 25 µM, runs of 1991","active: -15.9, -16.1, -20.9, -27, -24.5, -50.3, -3.08, -16.8, -3.55, -26.2, -18.4, -18.9, -3.86, 4.14, -30.4, -2.25, -37.1, -13.9%"
same,growth,"[1]; 25 µM, runs of 1992","active: -40.9, -25.9 (2×), -23.5 (3×), -46.2, 3.48, -22.3, -17.5, -4.27, -60.3, -58.2, -14.4 (2×), -3.89, -7.29, -38, -33.3, -51.6, -10.7, -37.9, -38.9, -9.74, -35.7 (2×), -7.35, -40.8, -23.6 (2×), -25.3, -46.5, -96.6, -42.5, -8.33, -8.6, -15.9, -17.9, -20.3, -35.4, -32.2, -34, -19.4, -29.4, 0.2, -14.9, 5.36, -10.4, -8.41, -11, -13.5, -19.9, -44.3, -12.6, -45.9, -35, -24.9, -18.5, -67.9, -50, -37.8, -17.6, -39.4, -39.3, -16.4, -31.3, -48, -9.09, -15.2, 0.326, -85.4, -97.3, -8.22, -31.2, -19.5, -7.65, -53.1, -49.3, -38.1, -30.4, -17.8, -34.2, -26.4, -50.9, 1.43, -50.5, -19.8, -51.8, -30.7, -5.99, -16.1, -36.1, -73.9, -35.5, -24.4, -16.9, -34.6, -56.7, -70, -42.1, -57.3, -86.8, -57.8, -29.9, -51.1 (2×), -56.2, -45.5, 0.728, 2.29, -17.2% and inactive: 87.8%, 23%"
same,growth,"[1]; 25 µM, runs of 1993","active: 0.0675, -5, -43.5, -53.1, -50.3, -20.5, -5.65, -30.5, -41, 2.09, -13.3, -50.8, -39.5, -39.6, -5.41, -16.1, -27.9, -12.3, 2.23, -11, -26, -44.5, -14.8, -11.6, -11.5, -7.43, -45, -24.9, -1.69, -23.6, -39.9, 1.7, -43.6, -21.4, -50.4, 3.01, -38.1, -45.2, -45.3, -36.4, -32.1, -54.6, -30.1, -35.2% and inactive: 27.9%"
same,growth,"[1]; 25 µM, runs of 1994","active: -17.5, -29.4, -35.7 (2×), -64.9, 1.81, -7.8, -2.43, -31.5, -51.4, -33.4, 4.23, -78, -33.3, -51.5, -1.19, -50.9, -13.7, -26.4, -34.9, -27, -7.64, -30.1, 0.942, 0.151, -2.45, 6.95, -14.1, 5.01, -52.9, -2.31% and inactive: 101%, 79.3%"
same,growth,"[1]; 25 µM, runs of 1995","active: -12, 3.22, -45.6, 6.76, -43.3, -44.3, -10.1, 4.69, -28.4 (2×), -31.6, -68.8, -19, -8.63, -11.1, -16.7, -1.9, 0.446, -8.75, -25.5, -23.1, -41.9, -44.4, -19.8, -24.1, -46.8, 3.03, -8.92, -37.4, -30.3, -55, -90, -28.7, -1.52, 3.73, -9.7, -23.5, -6.25, 1.31%"
same,growth,"[1]; 25 µM, runs of 1996","active: -23.9, -42.6, -2.43, 2.61, 1.08 (2×), 4.68, 0.957, -13.6, 1.82, 5.24, -26.7, -28.7, -44.4, -46.5, 2.51, -31.6, -24.8, -39.7, -50.8, -1.46, -28.6, -44.3, -2.4, 1.09, -56.7, -83.5, -24.7, -45.9, 0.763, -12.5, -22.9, 2.95, -23, -29.7, -0.245, -20.7, 2.56, -24.9, -17.6, -29.9, -25.3, -35.3, 5.01, -11.9, -46.1, -28.2, -41.9, 4.97, -22.4, 2.07, -44.9, -58.6, -8.1% and inactive: 10.2, 99.4, 12, 19.3%"
same,growth,"[1]; 25 µM, runs of 1997","active: -6.85, -8.51, -22.3, -1.13, -28, -24.7, -16, -49, -41, -2.92, -26.4, -29, -17.1, 2.92, -20.2, -45, -15.1, -12.8, -23.2, 1.71, 8.53, -40.1, -41.5, -11.3, -36.4, -38.3, -51.5, -41.9, -29.7, -29.1, -35.3, -40, -17.7, -39.1, -34.1, -46.8, -45.5, -57.9, -28.2, -28.7, -5.75, -26, -29.2, -33.1%"
same,growth,"[1]; 25 µM, runs of 1998","active: -58, -27.4, -8.28, -42.5, 0.179, 7.47, -14.7, -12.4, -28.4, -74.9, -46, -50.3, -31.5, -15.6, -11, -67.1, -0.638, 8.48, -36.6, -91.7, -5.86, -66.7, -29.9% and inactive: 32.7%"
same,growth,"[1]; 25 µM, runs of 1999","active: -48, -36.6, -17.5, -60.1, -25.8, -50.1, -100 (3×), -62.1, -84.9, -47, -74, 3.35, 1.22, -77.1, -94.1, -68.4%"
same,growth,"[1]; 25 µM, runs of 2000","active: -100% (2×), -10.2%, 0.0427%"
same,growth,[2]; runs of 2006,"inactive: 20.6%, 28.2%"
same,growth,[2]; runs of 2007,"inactive: 23.5, 34.3, 20.6, 19.6, 26.7, 31.3, 30.6, 22, 41.8, 26.2, 49.1, 50.2, 52, 43.7, 40.7, 48.4 (3×), 24.6, 33.3 (3×), 40.5, 40.1, 62.1, 46.7, 34.7, 36, 43, 25.8, 13.6, 31.6, 82.8, 47.2, 46.5, 34.8, 53.7, 44, 58.1, 41.7, 25.9, 55.1%"
same,growth,[2]; runs of 2008,"inactive: 59.3, 47.5, 60.8, 51.4, 70, 44.3, 93.1, 54.8, 38.4, 74.2, 69.7, 43.6, 28.5, 65.2, 27.1, 58.3, 62.9, 65.4, 26, 15.1, 28.9, 28, 17, 23.8, 18.4, 19.8, 64.5, 20.6, 23.2, 18.3, 20, 29.3, 34.2, 22.3, 25, 19.5, 47.9, 46.3, 42.4, 37.1, 15.2, 16.7, 59.7, 48.1, 32.9, 12.5, 17.5, 24.6 (2×), 23.5% and active: 8.9, 9.7, 8.82, -14.2, 6.99%"
